Source: PubChem BioAssay AID493208 (National Center for Advancing Translational Sciences (NCATS), 2011)
In all, about 44,000 compounds went through this assay and about 340 (0.77%) were called active. The shares of active, inactive and inconclusive entries below differ from those in the screen. Calls follow the shape of the dose curve; as a rule, active = well fitted inhibition curve with a large enough effect; inconclusive = small, poorly fitted or top-dose-only effect; inactive = flat fitted curve, though single readings scatter. No potency is given beside an inconclusive call; the fits are too rough.

Experiment: Acumen qHTS Assay for Inhibitors of the mTORC1 Signaling Pathway in MEF (Tsc2-/-, p53-/-) Cells: Sytravon; also: nearly all actives have a fitted effect of over 50% in size
Conditions: phospho-rpS6 immunofluorescence/PI, 24 h; series mostly up to 38.3 µM
Summary of the method: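 Compounds act on Tsc2-/-, p53-/- fibroblasts carrying an empty vector for 24 h before fixation and dual staining for phospho-S6 and DNA (propidium iodide). Values are percentages of cells above a rapamycin-defined pS6/PI threshold.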
Potency is read from the fitted curve at half-maximal effect; tags tell the direction and shape of the fitted curve.

SMILES | Potency
CCCCOc1ccc(C(=O)Nc2nnc3n2CCS3)cc1 | inconclusive [falling, single point]
COc1cc(-c2noc(-c3ccc(NCc4ccccc4)c([N+](=O)[O-])c3)n2)cc(OC)c1OC | inactive
COc1ccc2c(c1)c(=O)c(S(=O)(=O)c1ccc(Cl)cc1)cn2C | inconclusive [falling, single point]
COc1ccc(Br)cc1CNC(=O)CSc1cc(=O)n(C)c2ccccc12 | inconclusive [falling, partial curve, poor fit]
CCCCNC(=O)c1nn(-c2ccc(C)cc2)c(=O)c2c1c1ccccc1n2C | inactive
COc1cc(NC(=O)c2ccc(-c3nc(COc4ccccc4)c(C)o3)cc2)cc(OC)c1 | inactive
CCOc1ccc(N(CC)S(=O)(=O)N2CCCC(C(=O)Nc3ccc(OC)c(OC)c3)C2)cc1 (stereo unspecified) | inconclusive [falling, partial curve, poor fit]
Cc1ccc(NC(=O)C2CCCN(S(=O)(=O)c3ccc4c(c3)CCCC(=O)N4)C2)cc1Cl (stereo unspecified) | inconclusive [falling, partial curve, poor fit]
COc1ccc(CCNC(=O)C(=O)NCC(c2cccnc2)N2CCN(c3ccccc3)CC2)cc1 (stereo unspecified) | inconclusive [falling, single point]
CCC(C(=O)NCCc1ccc(Cl)cc1)n1ccc2cc(S(=O)(=O)N3CCCCC3)ccc21 (stereo unspecified) | inconclusive [falling, partial curve, poor fit]
Cc1cccc(-n2cnc3cc(C(=O)NC4CCCCCC4)ccc32)c1 | active: 9.27 µM
CCCN(CCC)C(=O)CSc1nnc2cc(C)c3ccccc3n12 | inconclusive [falling, partial curve, poor fit]
CC(=O)N1CCCc2cc(S(=O)(=O)N(Cc3ccccc3)C(C)C)ccc21 | inconclusive [falling, partial curve]
COc1ccc(-n2c(CCC(=O)O)ccc2-c2ccccc2)c(OC)c1 | inactive
COc1cc(OC)c(NC(=O)c2c3c(nc4ccccc24)C(=O)N(C2CCCCC2)C3)cc1Cl | inactive
CCCSc1nnc2n(-c3ccc(OC)cc3)c(=O)c3c4c(sc3n12)COC(C(C)C)C4 (stereo unspecified) | inconclusive [falling, single point]
CCOc1ccc(CNC(=O)C2CCN(Cc3cc4ccccc4n3Cc3ccccc3C)CC2)cc1 | inactive
CC1CCN(S(=O)(=O)c2ccc3nc(Nc4cccc(C(F)(F)F)c4)ccc3c2)CC1 | inconclusive [falling, single point]
CCOc1ccccc1Nc1ncnc2c1c(-c1ccccc1)cn2-c1ccc(OC)cc1 | inactive
O=C1c2[nH]nc(-c3ccccc3O)c2C(c2ccc(Cl)cc2)N1CCc1ccccc1 (stereo unspecified) | active: 16.5 µM
Cc1ccc(-c2nn3c(=O)cc(CN4CCN(S(=O)(=O)c5ccc(Cl)cc5)CC4)nc3s2)cc1 | inconclusive [falling, partial curve, poor fit]
CC1=C(C(=O)Nc2ccc(C)c(C)c2)C2(CCCCCC2)OC1=O | inconclusive [falling, partial curve, poor fit]

SMILES | Potency
CCOC(=O)c1c(C)[nH]c(CCC(=O)Nc2ccc(N(CC)CC)cc2C)c1C | inconclusive [falling, partial curve, poor fit]
COc1cccc(/C=C(\C#N)c2nc3ccc(C)cc3[nH]2)c1 | inconclusive [falling, partial curve, poor fit]
COc1ccc(NC(=O)Cn2c(=O)n(-c3ccccc3)c(=O)c3ccc(C(=O)NCc4ccc5c(c4)OCO5)cc32)cc1 | inconclusive [falling, partial curve, poor fit]
Oc1cccc(Nc2nc(-c3ccccc3)nc3ccccc23)c1 | inconclusive [falling, partial curve, poor fit]
CCN1C(=O)c2ccccc2Sc2ccc(NC(=O)Nc3ccc(C(C)=O)cc3)cc21 | inactive
Cc1ccccc1CNCCCSc1nnnn1-c1ccccc1 | inconclusive [falling, single point]
CCOc1ccc(S(=O)(=O)c2cn(Cc3ccc(C)cc3)c3ccc(OC)cc3c2=O)cc1 | inconclusive [falling, partial curve, poor fit]
Cc1ccc(-c2cnc(NCc3ccc(C(C)C)cc3)n2C)cc1 | inconclusive [falling, single point]
Cc1cccc(-c2noc(CNC(=O)c3ccc(C)cc3C)n2)c1 | inconclusive [falling, single point]
Cc1cccc(NC(=O)C2CCCN(c3nnc(-n4c(C)ccc4C)s3)C2)c1C (stereo unspecified) | inactive
CCOC(=O)c1ccc(Nc2nc(C(=O)OCC)nc3ccccc23)cc1 | inactive
COc1ccccc1Oc1nc2c(C)cccn2c(=O)c1/C=C(\C#N)c1nc2ccccc2[nH]1 | inconclusive [falling, full curve]
CCCOC1(C(F)(F)F)NC(=O)N(c2cccc(Cl)c2)C1=O (stereo unspecified) | inconclusive [falling, partial curve, poor fit]
Clc1ccccc1CSc1nnc(C2CCNCC2)o1 | inconclusive [falling, single point]
CCS(=O)(=O)c1oc(-c2ccc(F)cc2)nc1S(=O)(=O)c1ccccc1 | active: 0.131 µM
Cc1ccc(C)n1-c1nnc(N2CCCC(C(=O)Nc3ccccc3Br)C2)s1 (stereo unspecified) | inactive
COc1ccc(NC(=O)CCCn2c(=O)c3cccn3c3cccnc32)cc1Cl | inactive
CC(C)(C)c1ccc(OCC(=O)NCC2(N3CCOCC3)CCCCC2)cc1 | inconclusive [falling, single point]
Cc1cccc(CC(=O)Nc2ccc3nc(N4CCC(C)CC4)cc(C)c3c2)c1 | inconclusive [falling, single point]
CC1=C(C(=O)Nc2cc(Cl)ccc2C)C(c2sccc2C)n2ncnc2N1 (stereo unspecified) | inactive
O=C(Nc1nc2ccc(F)cc2s1)c1nc(S(=O)(=O)Cc2ccccc2F)ncc1Cl | inconclusive [falling, single point]
CSc1ncc(C(=O)NCc2ccc(C)cc2)c(C)n1 | inactive

SMILES | Potency
COc1ccc(CNC(=O)c2ccc3c(c2)N(Cc2c(F)cccc2Cl)C(=O)CS3)cc1 | inconclusive [falling, partial curve, poor fit]
Cc1ccc(S(=O)(=O)c2nc(S(=O)(=O)c3ccccc3)sc2NCCCOC(C)C)cc1 | inconclusive [falling, partial curve, poor fit]
CCOc1ccc(NC(=O)/C(C#N)=C\c2ccc(-c3ccc(Cl)cc3)o2)cc1 | inconclusive [falling, single point]
O=C(CSc1nc(-c2ccc(F)cc2)[nH]c1-c1ccc(F)cc1)Nc1ccc2c(c1)OCO2 | inactive
O=C(Cc1ccc(-c2ccccc2)cc1)NCCS(=O)(=O)N1CCN(c2ccccc2)CC1 | inactive
COc1cc(NC(=O)CSc2ccc(-c3ccccn3)nn2)cc(OC)c1 | active: 13.1 µM
O=C(Cn1cc(S(=O)(=O)c2ccccc2)c(=O)c2cc(Cl)ccc21)Nc1ccc2c(c1)OCO2 | inconclusive [falling, partial curve, poor fit]
Cc1cc(Nc2cccc(C(F)(F)F)c2)nc2ccc(NC(=O)c3cccc(Cl)c3)cc12 | inconclusive [falling, single point]
CCCCN(CCCNC(=O)c1cc(Nc2ccc(OC)c(OC)c2)nc2ccccc12)c1ccccc1 | inactive
Oc1ccc(NCc2ccccc2OCc2ccc(Cl)cc2)cc1 | inconclusive [falling, partial curve]
CSc1ccc(-c2nc3cccc(C)n3c2Nc2ccc(Cl)cc2)cc1 | inconclusive [activator, single point]
Cc1ccc(Nc2c(C(C)C)c(C)c(C#N)c3nc4ccccc4n23)cc1 | inconclusive [falling, single point]
Cc1ccc(NC(=O)/C=C\C(=O)N(c2ccc(C(C)C)cc2)C(C(=O)NCc2ccco2)c2ccc(F)cc2)cc1 (stereo unspecified) | inconclusive [falling, single point]
COc1ccc(Cl)cc1NC(=O)c1c(NCc2cccnc2)sc2c1CCC(C)C2 (stereo unspecified) | active: 5.85 µM
CCc1c(C)nc2nncn2c1NCc1ccc(Cl)cc1 | inconclusive [falling, partial curve, poor fit]
COc1cc(CNCCSc2nnnn2C)cc(Cl)c1OCc1ccccc1 | inconclusive [falling, single point]
CCc1ccc(C2=CC(c3c(F)cccc3Cl)n3c(nc4ccccc43)N2)cc1 (stereo unspecified) | inactive
COc1ccccc1C(=O)Nc1sc(Nc2ccccc2)nc1C(N)=O | inconclusive [falling, single point]
Cc1cc(C)c2c(NC(=O)c3ccccc3)c(C(=O)Nc3ccc(F)cc3)sc2n1 | inactive
Cc1ccc(C(=O)N/C(=C\c2ccc(Cl)cc2)C(=O)NC2CCCCC2)cc1 | inconclusive [falling, single point]
Cn1nnnc1SCCCNCc1cccc(OCc2ccc(F)cc2)c1 | inconclusive [falling, partial curve, poor fit]
CCOC(=O)N1CCN(Cc2nc3cc(NC(=O)CC)ccc3n2C(C)C)CC1 | inconclusive [falling, partial curve, poor fit]
